± gives the uncertainty stated by the source. Whole data set: some 9,900 compounds, median “viability index relative to DMSO control” near 1, cut for the lowest 2% near 0.85. This is one part of the list.
These compounds were tested on Plasmodium falciparum NF54 stage V gametocytes (assay: viability index relative to DMSO control (fraction); higher = less gametocyte killing). Conditions: 2.5 µM, library set: Broad Institute DOS, incubation time: 72 h.
Method in brief: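 P. falciparum NF54 stage V gametocytes in serum-free screening medium (0.75% gametocytemia, 1.25% hematocrit, 10 µl) were incubated with compound at 2.5 µM in 1,536-well plates for 72 hr at 37°C under low oxygen. Then 3 µl of 2.5 µM MitoTracker Red CMXRos plus 0.13% saponin was added for one to two hours. One field per well was imaged, 20–70 µm2 red particles were counted, and the viability index was the count divided by the plate mean of DMSO wells.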

SMILES	viability index
CO[C@H]1CN(C)C(=O)c2ccc(NC(=O)c3cc(C)on3)cc2OC[C@@H](C)NC[C@H]1C	0.96 ± 0.078
COc1ccc(C[C@H]2CCn3nncc3COC[C@H](CC(C)C)NC2=O)cc1	1.02 ± 0.054
COc1cccc(NC(=O)N2C[C@H](O)COC[C@H]3O[C@H](CC(=O)N(C)C)CC[C@@H]32)c1	1.01 ± 0.1
Cc1ccccc1-c1ccc([C@@H]2[C@@H](CO)N3C(=O)CN(C(=O)Nc4cccc(F)c4)C[C@H]23)cc1	1.034 ± 0.0062
OC[C@@H]1[C@@H](c2ccc(C#CC3(O)CCCC3)cc2)[C@@H]2CN(Cc3cncnc3)CCCCN12	1.12 ± 0.1
C[C@H]1CN([C@@H](C)CO)C(=O)c2cc(NS(=O)(=O)c3cccs3)ccc2O[C@@H]1CN(C)S(=O)(=O)c1ccc(Cl)cc1	1.01 ± 0.1
COCC(=O)Nc1ccc2c(c1)[C@@H]1C[C@@H](CC(=O)N[C@@H](C)c3ccccc3)O[C@@H](CO)[C@@H]1O2	1.1 ± 0.037
C[C@@H]1CN([C@H](C)CO)C(=O)c2cc(NC(=O)NC3CCCCC3)ccc2O[C@H]1CN(C)S(C)(=O)=O	0.966 ± 0.025
C[C@H](CO)N1C[C@H](C)[C@H](CN(C)Cc2ccncc2)Oc2ccc(NS(=O)(=O)c3ccc(F)cc3)cc2CC1=O	0.979 ± 0.096
COc1cccc(-c2ccccc2[C@H]2[C@@H](CO)N(C(=O)Nc3ccc(F)cc3)[C@H]2C#N)c1	1.09 ± 0.09
O=C(Nc1cc(F)ccc1F)N[C@H]1CC[C@@H](CCn2cc(C3CCCCC3)nn2)O[C@@H]1CO	1.05 ± 0.021
COCC(=O)Nc1ccc2c(c1)C(=O)N(C)[C@@H]1CC[C@H](CC(=O)NCCCN(C)C)O[C@@H]1CO2	1.02 ± 0.041
Cc1noc(C)c1S(=O)(=O)N(C)C[C@@H]1OCc2cn(nn2)CCCC(=O)N([C@@H](C)CO)C[C@H]1C	1.03 ± 0.014
COCC(=O)Nc1ccc2c(c1)[C@H]1C[C@H](CC(=O)NCc3ccc4c(c3)OCO4)O[C@H](CO)[C@H]1O2	1.069 ± 0.0036
O=C(Cc1ccncc1)NCC[C@H]1CC[C@@H](NS(=O)(=O)c2ccccc2Cl)[C@@H](CO)O1	1.07 ± 0.03
C[C@H](CO)N1C[C@H](C)[C@@H](CN(C)C(=O)Nc2cccc3ccccc23)Oc2ccc(NS(=O)(=O)c3cn(C)cn3)cc2C1=O	0.981 ± 0.058
CO[C@H]1CC[C@@H]2CCN(C)C(=O)CCCN(C)C(=O)c3cc(C#N)ccc3OC[C@@H]1O2	0.9892 ± 0.0029
N#C[C@H]1[C@@H](c2ccccc2)[C@H](CO)N1C(=O)CCN1CCCCC1	1.05 ± 0.049
CCC(=O)N1C[C@]2(CN(Cc3ccc(F)cc3)C2)c2c([C@@H]1CO)n(C)c1cc(OC)ccc21	1.04 ± 0.037
CC(C)NC(=O)N1CC(=O)N2[C@H](CO)[C@@H](c3ccc(/C=C/c4ccccc4)cc3)[C@H]2C1	1.03 ± 0.043
O=C(C[C@@H]1C[C@@H]2c3cc(NS(=O)(=O)c4ccccc4)ccc3O[C@@H]2[C@H](CO)O1)N1CCOCC1	1.025 ± 0.0055
O=C(Nc1ccc(C(F)(F)F)cc1)N1[C@@H]2CNC[C@H]1[C@H]2c1ccc(-c2ccccc2F)cc1	1.11 ± 0.1
C[C@@H]1CCCCO[C@H](CN(C)Cc2ccc(C(=O)O)cc2)[C@H](C)CN([C@@H](C)CO)C(=O)c2cc(N(C)C)ccc2O1	1.16 ± 0.032
CCC(=O)Nc1ccc2c(c1)C(=O)N(C)C[C@H](OC)[C@@H](C)CN(Cc1nccs1)[C@@H](C)CO2	1.13 ± 0.022

SMILES	viability index
C/C=C/c1ccc([C@@H]2[C@@H](CO)N3C(=O)CN(C(=O)c4ccncc4)C[C@@H]23)cc1	1.08 ± 0.011
CCCN1C[C@H](C)[C@H](OC)CN(C)C(=O)c2cc(NS(=O)(=O)c3ccccc3)ccc2OC[C@@H]1C	0.99 ± 0.002
O=C(C[C@@H]1CC[C@H]2[C@@H](COC[C@@H](O)CN2C(=O)Cc2ccccc2)O1)NC1Cc2ccccc2C1	1.04 ± 0.059
O=C(C[C@H]1CC[C@H]2[C@@H](COC[C@@H](O)CN2CCc2ccccc2)O1)NCCCN1CCOCC1	1.03 ± 0.12
C[C@H](CO)N1C[C@H](C)[C@@H](CN(C)C(=O)Cc2cccnc2)Oc2cc(C#Cc3ccccc3F)ccc2S1(=O)=O	0.993 ± 0.065
C[C@@H]1CN([C@H](C)CO)C(=O)c2cc(N(C)C)ccc2O[C@@H]1CN(C)Cc1ccc(Oc2ccccc2)cc1	1.05 ± 0.025
C[C@@H]1CN([C@@H](C)CO)C(=O)c2cc(N(C)C)ccc2O[C@@H](C)CCCCO[C@H]1CN(C)S(=O)(=O)c1cn(C)cn1	0.99 ± 0.031
COc1cccc(-c2ccc3c(c2)O[C@H](CN(C)Cc2cccnc2)[C@@H](C)CN([C@@H](C)CO)S3(=O)=O)c1	0.975 ± 0.052
COc1cccc(NC(=O)N[C@H]2CC[C@@H](CC(=O)N3CCN(C)CC3)O[C@@H]2CO)c1	1.13 ± 0.031
Cc1noc(C)c1S(=O)(=O)N(C)C[C@H]1OCc2cn(nn2)CCCC(=O)N([C@@H](C)CO)C[C@@H]1C	1.1 ± 0.045
C[C@H](CO)N1C[C@H](C)[C@H](CN(C)C(=O)c2ccccc2)Oc2cc(-c3cccc(C#N)c3)ccc2S1(=O)=O	1.08 ± 0.012
CO[C@H]1CN(C)C(=O)c2ccc(NC(=O)c3ccno3)cc2OC[C@H](C)N(S(C)(=O)=O)C[C@H]1C	1.094 ± 0.0085
C[C@H](CO)N1C[C@H](C)[C@H](CN(C)S(=O)(=O)c2cn(C)cn2)Oc2c(NC(=O)Nc3ccc(C(F)(F)F)cc3)cccc2C1=O	1.0734 ± 0.001
O=C(C[C@@H]1CC[C@@H]2[C@H](COC[C@@H](O)CN2C(=O)c2cnccn2)O1)N1CCN(c2ccccc2)CC1	1.03 ± 0.014
COc1ccc2c3c([C@@H](CO)NC[C@]33CN(C3)S(=O)(=O)c3ccc(C)cc3)n(C)c2c1	1.01 ± 0.048
N#C[C@H]1[C@@H](c2ccccc2)[C@H](CO)N1C(=O)Nc1cccc(F)c1	1.18 ± 0.045
COc1ccc(-c2cn(CC[C@@H]3CC[C@@H](NC(=O)c4cnccn4)[C@H](CO)O3)nn2)cc1	1.13 ± 0.092
CC(C)CC#Cc1ccc([C@@H]2[C@H](CO)N3CCCCN(C(=O)Nc4ccccc4)C[C@@H]23)cc1	0.877 ± 0.053
O=C1NCCOCc2cn(nn2)CC[C@H]1Cc1ccc(F)cc1	1.01 ± 0.034
CCCNC(=O)Nc1ccc2c(c1)C(=O)N(C)C[C@H](OC)[C@H](C)CN(C)[C@@H](C)CO2	1.13 ± 0.07
O=C(c1ccccn1)N1CC[C@@H]2[C@H]1c1cc(Br)ccc1N[C@@H]2CO	1.07 ± 0.0095
Cc1ccc(S(=O)(=O)Nc2ccc3c(c2)C(=O)N([C@@H](C)CO)C[C@H](C)[C@@H](CN(C)S(=O)(=O)c2cccs2)OCCCC[C@@H](C)O3)cc1	1.12 ± 0.013
CO[C@@H]1CN(C)C(=O)c2cc(NC(=O)c3ccccc3F)ccc2OC[C@H](C)N(CC2CCOCC2)C[C@H]1C	1.0033 ± 0.001
CN1CCN(C(=O)C[C@@H]2CC[C@H]3[C@@H](COC[C@H](O)CN3C(=O)c3ccccc3F)O2)CC1	1.06 ± 0.037

SMILES	viability index
CO[C@@H](C(=O)N(C)C[C@@H]1OCc2ccccc2-c2ccccc2C(=O)N([C@H](C)CO)C[C@@H]1C)c1ccccc1	0.993 ± 0.063
CCS(=O)(=O)Nc1ccc2c(c1)C(=O)N(C)[C@@H]1CC[C@@H](CC(=O)N[C@@H]3CCN(Cc4ccccc4)C3)O[C@H]1CO2	1.1 ± 0.056
CO[C@@H](CN(C)C(=O)Nc1ccc(Cl)cc1)[C@H](C)CN(Cc1ccccc1Cl)[C@@H](C)CO	1.01 ± 0.11
N#C[C@@H]1[C@H](c2ccc(-c3cccnc3)cc2)[C@H](CO)N1C(=O)C1CCOCC1	1.077 ± 0.0064
O=C(C[C@@H]1C=C[C@@H](NS(=O)(=O)c2ccccc2)[C@@H](CO)O1)NCCN1CCCCC1	1.08 ± 0.094
Cc1ccccc1-c1cnc2c(c1)C(=O)N([C@H](C)CO)C[C@@H](C)[C@@H](CN(C)Cc1ccccc1F)O2	1.002 ± 0.0018
C[C@@H]1CN([C@H](C)CO)C(=O)c2cc(NC(=O)C3CCCCC3)ccc2O[C@@H]1CN(C)C(=O)Nc1ccc(C(F)(F)F)cc1	1.06 ± 0.068
Cc1cc(C(=O)Nc2ccc3c(c2)C(=O)N(C)[C@@H]2CC[C@@H](CC(=O)NCc4ccc(-c5ccccc5)cc4)O[C@@H]2CO3)no1	1.1 ± 0.17
CCC(=O)N1[C@H](CO)[C@@H]2c3ccccc3N(S(=O)(=O)c3ccc(F)cc3)C[C@@H]21	1.01 ± 0.08
CCC(=O)N1C[C@H]2[C@@H](c3ccccc31)[C@H](CO)N2Cc1ccc(F)cc1	1.07 ± 0.1
CCCC(=O)N1C[C@]2(CN(Cc3nccs3)C2)c2c([nH]c3cc(OC)ccc23)[C@@H]1CO	1 ± 0.024
CN(C)C(=O)c1ccc(-c2ccc([C@@H]3[C@@H](CO)N4C(=O)CN(C(=O)CC5CC5)C[C@H]34)cc2)cc1	1.076 ± 0.0019
O=C1N[C@H](c2ccccc2)COCn2nncc2CC[C@H]1Cc1ccccc1	1.05 ± 0.036
N#Cc1cccc(-c2ccc([C@H]3[C@H]4CNC[C@@H]3N4S(=O)(=O)c3ccc(F)cc3)cc2)c1	0.993 ± 0.14
C[C@@H]1CCCCO[C@H](CN(C)Cc2ccc3c(c2)OCO3)[C@H](C)CN([C@H](C)CO)C(=O)c2cc(NS(=O)(=O)c3cn(C)cn3)ccc2O1	1.054 ± 0.0031
Cc1noc(C)c1NC(=O)N1C[C@H](O)COC[C@@H]2O[C@H](CC(=O)N[C@@H]3CCN(Cc4ccccc4)C3)CC[C@H]21	1.06 ± 0.093
C[C@H](CO)N1C[C@H](C)[C@H](CN(C)C(=O)Nc2ccccc2C(F)(F)F)OCc2cnnn2CCCC1=O	1.03 ± 0.014
CN(C)C(=O)c1cccc(-c2ccc([C@@H]3[C@H]4CN(C(=O)C5CCC5)CC(=O)N4[C@H]3CO)cc2)c1	0.9976 ± 0.0084
CO[C@@H](CN(C)C(=O)c1ccccc1F)[C@@H](C)CN([C@@H](C)CO)S(=O)(=O)c1ccc(F)cc1	1.06 ± 0.088
COc1ccc(S(=O)(=O)N(C)C[C@H]2Oc3ccc(NC(=O)Cc4cn(C)c5ccccc45)cc3C(=O)N([C@H](C)CO)C[C@H]2C)cc1	1.01 ± 0.027
COc1ccc2c3c([C@H](CO)N(CC4CC4)C[C@]33CN(C3)C(=O)Nc3ccc(F)cc3F)n(C)c2c1	0.957 ± 0.025
C[C@H](CO)N1C[C@H](C)[C@H](CN(C)S(=O)(=O)c2cccs2)Oc2ncc(-c3cc4ccccc4o3)cc2C1=O	0.891 ± 0.12

Reference: the supplement of paper PMC4723716
